Out of some 410,000 compounds screened, about 5,000 (1.2%) were called active. Inconclusive results, whose numbers are uncertain, are shown with a selection of clear calls. Calls follow the shape of the dose curve; as a rule, active = well fitted inhibition curve with a large enough effect; inconclusive = small, poorly fitted or top-dose-only effect; inactive = no such curve, though single readings can be large or run the other way. Where the call is inconclusive, the potency comes from a doubtful curve fit.
Experiment: qHTS for Inhibitors of TGF-b; also: nearly all actives have a fitted effect of over 65% in size
Settings: HepG2 CAGA-GFP TGF-b/SMAD3 reporter, GFP fluorescence, 18 h, TGF-beta stimulated, 500 pg/mL final; series mostly up to 46.1 µM
Procedure, shortened: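 First, reporter cells (HEPG2 CAGA-GFP) rested 2 h at 37 degrees C. Next, compounds were pinned in and TGF-beta added to 500 pg/mL final. After 18 h, GFP was imaged per cell and summed per well.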
Potency is read from the fitted curve at half-maximal effect; tags tell the direction and shape of the fitted curve.

SMILES | Potency
COc1ccc(CNC(=O)C(c2cccs2)N(Cc2ccco2)C(=O)Cc2cccs2)cc1 (stereo not drawn) | inactive
O=C(c1ccccc1F)N1CCC2CC1c1cc(-c3ccc4c(c3)OCO4)ccc12 (stereo not drawn) | inconclusive: 7.94 µM [inhibitor, partial curve, poor fit]
O=C(Nc1ccccc1Cl)c1cc(C2CCCN(C(=O)c3ccccc3)C2)on1 (stereo not drawn) | inactive
CCc1noc(C)c1C(=O)Nc1nc(-c2ccccc2)c(C(C)=O)s1 | inconclusive: 35.5 µM [inhibitor, single point]
COC(=O)COc1cccc2c(=O)n(CC(=O)NCCc3ccccc3)ccc12 | inconclusive: 31.6 µM [inhibitor, single point]
CCC(=O)c1ccc(OCC(=O)Nc2ccccc2C(=O)N2CCCCC2)cc1 | inactive
Cc1cc(C)cc(Nc2cc(C(=O)NCc3ccccc3)c3ccccc3n2)c1 | inconclusive: 0.0891 µM [inhibitor, full curve, poor fit]
Cc1ccc(-c2noc(C3CCCN(C(=O)c4cccc(F)c4)C3)n2)cc1 (stereo not drawn) | inconclusive: 35.5 µM [inhibitor, single point]
CCN(c1ccc(C(=O)CSc2nnc(C3CC3)n2C2CC2)cc1)S(C)(=O)=O | inactive
CCOC(=O)N(NC(=O)C(O)(c1ccccc1)c1ccccc1)c1ccccc1 | inconclusive: 1.78 µM [inhibitor, partial curve, poor fit]
COc1cccc(-c2cc(C(F)(F)F)nc(-n3ccc([N+](=O)[O-])n3)n2)c1 | inconclusive: 3.55 µM [inhibitor, single point]
CCc1ccc(OCCSc2nc(-c3cccc(C)c3)nc3cc(=O)[nH]n23)cc1 | inactive
Cc1ccc(-c2noc(C3CCCN(C(=O)c4ccccc4Br)C3)n2)cc1 (stereo not drawn) | inactive
CC(O)(c1cccc(F)c1)c1nc(-c2ccc(Cl)cc2)cs1 (stereo not drawn) | inconclusive: 20 µM [inhibitor, single point]
O=S(=O)(N/N=C1/CC(c2ccccc2)Oc2ccccc21)c1ccc(Br)cc1 (stereo not drawn) | inconclusive: 15.8 µM [inhibitor, partial curve, poor fit]
Cc1ccc(C(=O)Nc2ccc3c(c2)CCC3)cc1S(=O)(=O)N1CCOCC1 | inconclusive: 35.5 µM [inhibitor, single point]
COc1ccc(/C=C/C(=O)C(C(N)=O)=C2SCCS2)cc1 | inconclusive: 35.5 µM [inhibitor, single point]
O=C(c1cccnc1)N1CCN(Cc2ccccc2Br)CC1 | inconclusive: 0.708 µM [inhibitor, partial curve, poor fit]

Reference: PubChem BioAssay AID588855 (National Center for Advancing Translational Sciences (NCATS), 2011)
